The values that follow come from PMC8696166.

By UniProt entry, the sequences of proteins in these tests, tags left out.
UniProt P0A3F4: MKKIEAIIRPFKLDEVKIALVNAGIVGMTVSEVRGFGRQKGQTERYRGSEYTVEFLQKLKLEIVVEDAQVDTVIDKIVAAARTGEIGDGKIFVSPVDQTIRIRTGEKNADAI

What all share (test): two-hybrid; bacterial two-hybrid (BACTH, reconstitution of B. pertussis adenylate cyclase from T18 and T25) in E. coli BTH101; plate assays on MacConkey-lactose and M63-maltose + X-gal, 0.5 mM IPTG, 30°C; signals classed by eye into five levels
Assay [1] deals with T1, NtcA, BACTH fusions (Synechococcus elongatus PCC7942) (UniProt P29283).
T1 sequence: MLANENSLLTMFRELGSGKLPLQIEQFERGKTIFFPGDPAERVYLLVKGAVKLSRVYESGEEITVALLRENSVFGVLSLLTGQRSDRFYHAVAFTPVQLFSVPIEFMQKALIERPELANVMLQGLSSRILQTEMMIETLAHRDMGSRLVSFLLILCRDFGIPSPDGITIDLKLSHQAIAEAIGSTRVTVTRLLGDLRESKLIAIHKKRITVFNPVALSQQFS

Assay [2] addresses PII (GlnB), BACTH fusions (Synechococcus elongatus PCC7942) (UniProt P0A3F4).
Substrate in assay [3]: PII (GlnB), BACTH fusions (Synechococcus elongatus PCC7942) (UniProt P0A3F4)
The source holds these as a separate data set.

For assay [4], the target named is T1, NtcA, BACTH fusions (Synechococcus elongatus PCC7942). This is another data set of the same source.

Read-outs that look alike come from different tables or passages of the source. Results are given in words; binding and its absence hold for the method and conditions named. Some binding calls cover weakened binding; strength is not graded here. For part of these data: Where a sequence is shown, tags or fusion partners need not be part of it.

In the case of “PII (GlnB), BACTH fusions (from UniProt P0A3F4 1-112)”, the binding entry in assay [1] is “no binding”; in assay [2], “binds”.

B1: PipX 1-54, BACTH fusions (domain or fragment, UniProt Q7X386 1-54)
chain: MASENYLNHPTFGLLYQICSFGDSKELFATLYAQRLFFLVAFDARGTRFEPIGR
As to B1, the binding entry in assay [3] and in assay [4] was “no binding” throughout.

B2: PipX 1-70, BACTH fusions (domain or fragment, UniProt Q7X386 1-70)
chain: MASENYLNHPTFGLLYQICSFGDSKELFATLYAQRLFFLVAFDARGTRFEPIGRNEARMLVDNRLRQLRR
For the molecule B2, the binding entry in assay [3] and in assay [4] was “binds” each time.

B3: NtcA, BACTH fusions (protein, UniProt P29283 1-222)
chain: T1 sequence
As to B3, the binding result in assay [4] was “binds”.

B4: PipX (PII interacting protein X), BACTH fusions (protein, UniProt Q7X386 1-89)
chain: MASENYLNHPTFGLLYQICSFGDSKELFATLYAQRLFFLVAFDARGTRFEPIGRNEARMLVDNRLRQLRRDASLQEYNQLQQVFKQTFL
For B4, the binding entry in assay [3] and in assay [4] was “binds” each time.
